Assay results taken from PubChem BioAssay AID651820 (National Center for Advancing Translational Sciences (NCATS), 2012).
“And” between values parts separate entries of the source, which are not always exact repeats. Equal values may be shown once. Out of some 340,000 compounds screened, about 12,000 (3.5%) were called active. Inconclusive results, whose numbers are uncertain, are shown with a selection of clear calls. Calls follow the shape of the dose curve; as a rule, active = well fitted inhibition curve with a large enough effect; inconclusive = small, poorly fitted or top-dose-only effect, or another doubt; inactive = no such curve, though single readings can be large or run the other way. A potency beside an inconclusive call is a rough fit, not a confirmed value.

Test: qHTS Assay for Inhibitors of Hepatitis C Virus (HCV)
Details: Huh7.5.1 HCVcc-Cre (HCVcc is cell-culture hepatitis C virus) infection, luciferase reporter, 44 h; activity change, negative = inhibition: at 41.8 µM (top of the series) unless noted
In short: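 Infectious HCV cell culture screen: compound-treated cells (1,000/well, pre-plated 4 h) are infected with HCVcc-Cre at roughly 0.5 moi and grown 44 h. Infection is quantified by luciferase signal after 15 min substrate incubation at room temperature.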
% is scaled to controls: 0 for no effect and ±100 for the full control effect; potency is read from the fitted curve at half-maximal effect; tags tell the direction and shape of the fitted curve.

Row | Structure (SMILES) | activity change, negative = inhibition | Potency
1 | CN(C(=O)Cn1c(Cl)nc2c1c(=O)n(C)c(=O)n2C)C1CCS(=O)(=O)C1 (configuration not stated) | inactive: 13.2% | –
2 | Cc1ccc(-n2cc(C(=O)c3ccc(F)cc3)nn2)cc1Cl | – | inconclusive: 5.62 µM [inhibitor, single point]
3 | CCOc1cccc(CN2CCCC(C(=O)c3cc(Cl)ccc3OC)C2)c1O (configuration not stated) | – | inconclusive: 22.4 µM [inhibitor, partial curve]
4 | COc1cc(N)c(Cl)cc1C(=O)OCC(=O)N(C)C1CCCCC1 | inactive: 6.3% | –
5 | CCCCOc1ccc(N2CC(C(=O)NCCc3ccc(OC)c(OC)c3)CC2=O)cc1 (configuration not stated) | – | inconclusive: 11.2 µM [inhibitor, partial curve, poor fit]
6 | O=C1N[C@@H](Cc2c[nH]c3ccccc23)COC(=O)[C@@H](Cc2ccc(F)cc2)CC/C=C/C[C@@H]1CC(=O)N(CCO)Cc1ccccc1 | – | inconclusive: 14.1 µM [inhibitor, single point]
7 | COc1ccc(C=CC(=O)c2c(OC)cc(OC)c(OC)c2O)cc1 | inactive: -26.2% | –
8 | Cc1ccc(C)c2[nH]c(=O)c(CN(Cc3ccco3)C(=O)Nc3ccccc3)cc12 | – | inconclusive: 14.1 µM [inhibitor, single point]
9 | COc1ccc(NS(=O)(=O)c2cc(NC(=O)c3nn(C)c(=O)c4ccccc34)ccc2OC)cc1 | – | inconclusive: 10 µM [inhibitor, partial curve]
10 | COc1ccc(NC(=O)C2CCCCN2S(=O)(=O)c2ccc(F)cc2)c(OC)c1 (configuration not stated) | – | inconclusive: 31.6 µM [inhibitor, single point]
11 | CCOc1ccccc1C(=O)Nc1cc(OC)ccc1OC | – | inconclusive: 3.55 µM [inhibitor, partial curve, poor fit]
12 | CCOc1ccc(C(=O)C(C)OC(=O)Cn2[nH]c(=O)c3ccccc3c2=O)cc1 (configuration not stated) | inactive: 0.921% | –
13 | CC(=O)c1ccc(S(=O)(=O)N2CCN(C(=O)c3ccc(COc4ccccc4)o3)CC2)cc1 | – | inconclusive: 31.6 µM [inhibitor, single point]
14 | CCCn1c(N)c(C(=O)CSc2n[nH]c(-c3ccccc3F)n2)c(=O)n(C)c1=O | – | inconclusive: 31.6 µM [inhibitor, single point]
15 | COc1cc2c(cc1NC(=O)C(C)Sc1cccc[n+]1[O-])oc1ccccc12 (configuration not stated) | – | inconclusive: 11.2 µM [inhibitor, single point]
16 | N#Cc1cccc(NC(=O)CSc2nnc(C3CC3)n2C2CC2)c1 | inactive: -8.36% | –
17 | COc1ccc(OC)c(NC(=O)CSc2ccccc2)c1 | – | inconclusive: 31.6 µM [inhibitor, single point]
18 | COc1cccc2nc3cc(C)c(C)cc3nc12 | – | inconclusive: 10 µM [inhibitor, partial curve]
19 | O=C(CSc1nc2ccccc2c(=O)n1CCCN1CCOCC1)Nc1ccc(F)c(Cl)c1 | – | active: 1.78 µM
20 | OC(CSc1c(Cl)cccc1Cl)CN1CCN(c2ccc(F)cc2)CC1 (configuration not stated) | – | inconclusive: 31.6 µM [inhibitor, single point]
21 | C=CCn1c(CCNC(=O)c2cccs2)nnc1SCC(=O)c1ccc(Br)cc1 | inactive: 4.5% | –
22 | CCOc1ccc(C(=O)Nc2cccc(NC(=O)c3cccs3)c2)cc1[N+](=O)[O-] | – | inconclusive: 10 µM [inhibitor, partial curve]
23 | COc1ccc(-c2nnc(SCC(=O)N3CCc4ccccc4C3)o2)cc1 | – | inconclusive: 22.4 µM [inhibitor, single point]

Row | Structure (SMILES) | activity change, negative = inhibition | Potency
24 | Cc1[nH]c2ccccc2c1/C=C/C(=O)c1ccncc1 | – | inconclusive: 22.4 µM [inhibitor, single point]
25 | COc1cccc(-c2nnn(CC(=O)NC3CCCC3)n2)c1OC | – | inconclusive: 10 µM [inhibitor, partial curve]
26 | CCN[C@H]1CN(CCCOC)S(=O)(=O)c2sc(S(N)(=O)=O)cc21 | inactive: 18.8% | –
27 | COc1ccc2cc(S(=O)(=O)NC3CC(C)(C)NC(C)(C)C3)ccc2c1 | – | inconclusive: 25.1 µM [inhibitor, single point]
28 | CCc1noc(C)c1C(=O)Nc1nc(-c2ccc(OC)c(OC)c2)cs1 | – | inconclusive: 2.51 µM [inhibitor, partial curve]
29 | CCOC(=O)N1CCN(S(=O)(=O)c2ccc(C(=O)NNc3nc4c(C)cccc4s3)cc2)CC1 | – | inconclusive: 22.4 µM [inhibitor, single point]
30 | C/C(=N/NS(=O)(=O)c1ccc(C)cc1)c1ccc2c(c1)OCO2 | inactive: 13.2% | –
31 | O=C(CN(Cc1cccs1)S(=O)(=O)c1ccc(S(=O)(=O)NC2CCCCC2)cc1)Nc1ccccc1 | – | inconclusive: 31.6 µM [inhibitor, single point]
32 | CCC(C)NS(=O)(=O)c1ccc(NC(=O)C2CCN(C(=O)c3ccco3)CC2)cc1 (configuration not stated) | – | inconclusive: 31.6 µM [inhibitor, single point]
33 | CCOc1ccc(NC(=O)COc2ccc(S(=O)(=O)N3CCOCC3)cc2)cc1 | – | inconclusive: 2.51 µM [inhibitor, full curve, poor fit]
34 | CC1C(=O)N2CCCc3cc(NC(=O)C(=O)NCCc4c[nH]c5ccccc45)cc1c32 (configuration not stated) | inactive: 9.42% [at 8.37 µM] | –
35 | COc1ccc(S(=O)(=O)N2CCN(c3ccc(C)cc3C)CC2)cc1OC | – | inconclusive: 22.4 µM [inhibitor, single point] and inconclusive: 31.6 µM [inhibitor, single point]
36 | CCN(CC(=O)Nc1ccccc1SC)Cc1nc2ccccc2c(=O)[nH]1 | – | active: 11.2 µM
37 | O=C(C[C@H]1C/C=C\CCCC(=O)OC[C@H]2CCCN2C1=O)NCCO | – | inconclusive: 5.62 µM [inhibitor, single point]
38 | CCN(c1ccccc1)S(=O)(=O)c1ccc(Cl)c(NC(=O)COC(=O)C2CC2C)c1 (configuration not stated) | inactive: -26.7% | –
39 | COc1cc2oc3cc(C)oc(=O)c3c2cc1OC | inactive: -23.5% | –
40 | CN(C)C=Nc1ccc2nn(-c3ccccc3)nc2c1 | inactive: -21.7% | –
41 | O=C(c1ccccc1-c1nc(-c2ccccc2)no1)N1CCCC1 | – | inconclusive: 8.91 µM [inhibitor, partial curve]
42 | CC1C(OC(=O)CCC(=O)NC(C)(C)CO)O[C@H]2OC3(C)CC[C@H]4[C@H](C)CCC1C24OO3 (some centres not stated) | – | inconclusive: 1 µM [inhibitor, full curve, poor fit]
43 | COc1ccc(NC(=O)CCc2nc(-c3ccccc3F)no2)cc1 | – | inconclusive: 31.6 µM [inhibitor, single point]
44 | COc1ccc(S(=O)(=O)N(Cc2ccccc2)Cc2nc(-c3ccccc3)no2)cc1 | – | inconclusive: 8.91 µM [inhibitor, partial curve]
45 | Cc1c(C)c2ccc(OCC(=O)NC3CCN(Cc4ccccc4)CC3)cc2oc1=O | – | inconclusive: 3.98 µM [inhibitor, partial curve]
46 | CCC(=O)NC(Nc1cc(C)cc(C)n1)(C(F)(F)F)C(F)(F)F | – | inconclusive: 31.6 µM [inhibitor, single point]

Row | Structure (SMILES) | activity change, negative = inhibition | Potency
47 | Cc1sc(N/N=C/c2cccnc2)nc1-c1ccccc1 | – | inconclusive: 14.1 µM [inhibitor, single point]
48 | CCCCC(CC)CNC(=O)c1ncn[nH]1 (configuration not stated) | inactive: 15.3% | –
49 | CC(=O)Nc1ccc(Nc2ncnc3c2cnn3-c2ccc(C)cc2C)cc1 | inactive: 17.1% | –
50 | CC(C)(C)c1ccc(-c2cn(-c3ccc(Br)cc3)c3[n+]2CCCS3)cc1 | – | inconclusive: 31.6 µM [inhibitor, single point]
51 | Cc1ccc(OCC(=O)Nc2sc3c(c2C#N)CCC3)cc1C | – | inconclusive: 4.47 µM [inhibitor, single point]
52 | COc1ccc(-c2ccc(-c3nnn(CC(=O)N4CCOCC4)n3)cc2)cc1 | – | inconclusive: 31.6 µM [inhibitor, single point]
53 | Cc1cccc(N(C(=O)c2csnn2)C(C(=O)NC2CCCCC2)c2ccccn2)c1C (configuration not stated) | – | inconclusive: 1 µM [inhibitor, full curve]
54 | O=C(CCS(=O)(=O)c1ccc(Cl)cc1)Nc1nnc(-c2ccco2)o1 | – | inconclusive: 3.98 µM [inhibitor, single point]
55 | N#C/C(=C/c1ccc(-c2ccc(S(N)(=O)=O)cc2)o1)c1nc2ccccc2s1 | – | active: 4.47 µM
56 | Oc1cccc2nc3ccccc3nc12 | – | inconclusive: 14.1 µM [inhibitor, partial curve]
57 | CN(C(=O)c1cccnc1)c1nc(-c2ccccc2)cs1 | – | inconclusive: 3.16 µM [inhibitor, single point]
58 | COc1ccc(-c2cc(C(F)(F)F)nc(SCCC(=O)NCc3ccccc3)n2)cc1 | – | inconclusive: 3.16 µM [inhibitor, partial curve]
59 | COc1ccc([C@H]2CC(=O)C=C(c3cccc(OC)c3OC)C2)cc1OC | – | inconclusive: 22.4 µM [inhibitor, single point]
60 | CCCCN(CC)CCNC(=O)CNC(=O)Cn1ccc2ccccc2c1=O | inactive: 36.7% | –
61 | Cc1[nH]nc(C(F)(F)F)c1N=NN1CCOCC1 | – | active: 15.8 µM
62 | O=C(CC12CC3CC(CC(C3)C1)C2)NCc1ccc(F)cc1 | inactive: 14.4% | –
63 | Cc1cc(C)cc(N(C(=O)c2snc(C(N)=O)c2N)C(C(=O)NCC2CCCO2)c2ccc(C)o2)c1 (configuration not stated) | – | inconclusive: 31.6 µM [inhibitor, single point]
64 | CCC(=O)Nc1ccc(NCc2ccc(-c3ccccc3)cc2)cc1 | inactive: 5.69% | –
65 | O=C(COc1cc(F)ccc1[N+](=O)[O-])NCC1CCCO1 (configuration not stated) | – | inconclusive: 31.6 µM [inhibitor, single point]
66 | N#CCCN/N=C(/Cc1nc2ccccc2[nH]1)c1cccc(Cl)c1 | – | inconclusive: 31.6 µM [inhibitor, single point]
67 | Cc1ccc(CNc2cnn(C34CC5CC(CC(C5)C3)C4)c(=O)c2Cl)cc1 | inactive: -9.75% | –
